Source: the RNAGym collection of RNA variant scans (doi:10.1073/pnas.2313332121)
Variants at the floor of the assay are shown more often than the library holds them.

B1: TPR 5TU (parent)
chain: GGAUCUUCUCGAUCUAACAAAAAAGACAAAUCUGCCACAAAGCUUGAGAGCAUCUUCGGAUGCAGAGGCGGCAGCCUUCGGUGGCGCGAUAGCGCCAACGUUCUCAACUAUGACACGCAAAACGCGUGCUCCGUUGAAUGGAGUUUAUCAUG

Variants of: B1
Test: polymerase ribozyme fitness, log enrichment relative to wild type (log ratio); higher = more active; in vitro selection for triplet polymerase activity
Summary of the method: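 Only genotypes with ≥10 input reads and ≥1 read per output were kept after Illumina sequencing of input and output libraries. These libraries were PCR-built, transcribed mutants of each subunit of a heterodimeric triplet polymerase ribozyme, each put through one triplicate in vitro selection round with frozen incubation at −7 °C, gel excision of extended constructs, streptavidin-bead capture and RT-PCR. Fitness is a logarithmic ratio of genotype enrichment to wild-type enrichment, from inverse-variance-weighted replicate averages, with the logarithm in base 2.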

Polymerase ribozyme fitness (log ratio), -3.88:
G25U C85A

Polymerase ribozyme fitness (log ratio), -1.25:
A26C A52G

Polymerase ribozyme fitness (log ratio), -2.44:
G25U C76U

Polymerase ribozyme fitness (log ratio), -3.26:
G25U C99U A119C A120G

Polymerase ribozyme fitness (log ratio), -3:
G25U C69G G83U C95U

Polymerase ribozyme fitness (log ratio), -2.66:
G25U A37C G83A U134C

Polymerase ribozyme fitness (log ratio), -3.65:
G25C C132U

Polymerase ribozyme fitness (log ratio), -3.99:
G25U C35A A41G C54U C87U C95U

Polymerase ribozyme fitness (log ratio), ≤ -4.2:
G25C C72U A91G A119U U127A
G25C C75A U104A A119U U134G U135A
G25C C76U C79G C93A C118U
G25C C79G U145C
G25C C85U A98U G126A U146C A147C
G25C C93A C95U A107C
G25C G42A C85A U90C G133C U145C
G25C G42C G71C
G25C G86A A122U
G25C G88U G124A G128U U135C
G25C U33A A91G U134C G136U
G25C U33A C69G G71A
G25C U45A C72U C76A G81C C87G G92A C108A G141A
G25C U45C G81U G86A C93G U148C
G25C U61A C87U C103U U109G G141A U146C
G25C U90G A142C
G25U A26C C85G A119U
G25U A26C U53G C54A G68U A119C G143A
G25U A26G G50C C69U G94C C114A G143U
G25U A26G G59A C93A
G25U A28U C54U C87U U139C
G25U A30U A73C C93U A138G
G25U A40C G46C G70A G86U U111G C118U G140C
G25U A40C U82G A91G C95G
G25U A41C U130G
G25U A41G U53G C54U G92C G124A U151C
G25U A66C C69U A91G C103A U148A
G25U C27A G81A C95G
G25U C32U A40U U56A G80C C85A C87A C116G U146G A150U
G25U C32U C57U G74C C93A A113C G143U
G25U C35G A40G A47U A91C A107G G133C
G25U C38A G46U U56G U148C
G25U C38U A47U U56G U61A G65C C79G C103G U134A
G25U C43G C57U U144G U151A
G25U C43U U55A A60C G92A C103A
G25U C57U G68U U77A G94A C116U G140A
G25U C69A U82G A89G C125U C149U
G25U C75A A91C
G25U C85G C96G U102G
G25U C85G C132G
G25U C85U U104G G128A G141A A142G
G25U C87G
G25U G42A A49C G80A C85G C95U C103A
G25U G46C C57A C93G A106G
G25U G48A C69G G94A C95U A97U G112A A115C C116U A119U
G25U G50C A110U
G25U G50C C87G G136U
G25U G50C U77A C87U A107G
G25U G50U C96G G100A C132A G141A A147U
G25U G50U G92A
G25U G68U G83U U104G A115C G141C U148A
G25U G80C
G25U G84U U135A
G25U G88C C116G G140A
G25U G92A A98G A121G G124U A137U A150U
G25U U33G A49C C72A C85U A91C
G25U U33G C96U A97C G141U U146A
G25U U45A G48C A49G C63A A66C C76U U78G C129G
G25U U55A C85A G140C
G25U U55A G74A C85U A106C G136U U148C
G25U U55C A91U
G25U U148A
A26C A28U U77C C85U G128A A142U
A26C A29C C43U C54A U55A U77A C79G C93A A97U C149G
A26C A30U C79U
A26C A39C U61A C72A G83C G84C C85A A121C C125G G136A
A26C A41C U56A C99A U134C G140A
A26C A49G G68U G80U G83A C131A
A26C A52C C69U G100A C125A
A26C A73C G92A U144A U145C
A26C A97U G140C
A26C C27G A52C C72G A91U
A26C C27G A60G C93A
A26C C27G C32G G88A U135A

Polymerase ribozyme fitness (log ratio), -2.88:
G25U C76U G94C A120G

Polymerase ribozyme fitness (log ratio), -4.05:
G25U C96A A142G
